This note sets out measurements from article PMC10726135.

The other results are listed elsewhere or left out. At the low end of the ranking the order means little. The protein was read in a cell extract, so binding may be indirect.

In this test the target is T1, HNF4alpha8 (COS-7 nuclear extract) (UniProt P41235-5).
T1 sequence: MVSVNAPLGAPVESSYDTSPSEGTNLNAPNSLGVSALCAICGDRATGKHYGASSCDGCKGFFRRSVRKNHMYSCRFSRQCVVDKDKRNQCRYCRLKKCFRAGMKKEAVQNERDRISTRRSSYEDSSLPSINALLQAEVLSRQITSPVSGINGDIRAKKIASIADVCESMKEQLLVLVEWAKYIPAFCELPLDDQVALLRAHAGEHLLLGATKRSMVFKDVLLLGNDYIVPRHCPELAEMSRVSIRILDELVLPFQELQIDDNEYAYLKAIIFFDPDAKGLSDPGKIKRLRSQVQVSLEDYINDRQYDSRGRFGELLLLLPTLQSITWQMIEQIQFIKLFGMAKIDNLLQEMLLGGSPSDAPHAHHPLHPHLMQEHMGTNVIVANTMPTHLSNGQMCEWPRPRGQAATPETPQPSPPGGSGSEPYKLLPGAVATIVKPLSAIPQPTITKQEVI
Put plainly: protein-binding microarray. Conditions: COS-7 nuclear extract on double-stranded Agilent 4x180k PBM; binding buffer, salt, pH and temperature not given; high values mean tight binding; double strand, one strand shown; sequences stand for … in …GCCTAGGGAGATTAGAGTATCGGTCGA
For the sequence GGAAGCTGGGCAGGCGCCGACTGCCAGGAG, the binding signal (log2 normalized intensity) is -1.35.

As for ATGTTGGGCAACTACCTCAAAGTTTTGTTA, the binding signal (log2 normalized intensity) was -0.292.

Take CTCAGCACATGGCAGTGTACACTAGCCAAA: the binding signal (log2 normalized intensity) was -1.42.

Regarding CTAATAAATGATTCATTCAGCAAATATTGA, the binding signal (log2 normalized intensity) is 0.0735.

On to GCTGTGCCGAGCCTGCAGGTGAATGGAAAC, for which the binding signal (log2 normalized intensity) is -1.32.

Regarding GGGTCTAGGTTGGAGGAGCTGAACTGTAAC, the binding signal (log2 normalized intensity) is 0.936.

Consider TGCTCTGGACATACCTCTAATCATAAAGCT, for which the binding signal (log2 normalized intensity) is -1.3.

With TGGTAGGATTGTTTGGGGATTACACTAGAT, the binding signal (log2 normalized intensity) was -0.85.

Take TCCACAGTGCACATTCCAGAGAAATAGTGA: the binding signal (log2 normalized intensity) is -1.03.

For the sequence CCTTCCCTCTGTCTTCAAAACCACACCCCT, the binding signal (log2 normalized intensity) was 4.26.

As for TGGACCTCATTAATAGGGCAAGAGCTCAGA, the binding signal (log2 normalized intensity) was -1.25.

As to CTGGAGCAAAGGTCACTCTTGCTATGCCTT, the binding signal (log2 normalized intensity) stood at 5.81.

As for AAGGTGTCAGGACCTTTCTTTATGGACCTT, the binding signal (log2 normalized intensity) worked out at 4.53.

CTAGTACTCCTGCCCCTGTGCAATACTTTC: the binding signal (log2 normalized intensity) worked out at 2.52.

Take TTGCACTGCTGGTTTTTGTCAAAGATAGTT: the binding signal (log2 normalized intensity) is 0.717.

Turning to TCAGCTGCCTAGAGGCCTGGGAATGCCTAG, the binding signal (log2 normalized intensity) is -1.01.

TATCAGGCAGGATATTCCAAAAGGGCAGCA: the binding signal (log2 normalized intensity) was determined as 1.16.

In the case of TTTCCATCGCCCTTATCAGAAGGAAAGTCT, the binding signal (log2 normalized intensity) is 0.629.

In the case of CGAAGATAACCTACTTAAAAAGAAATAGCC, the binding signal (log2 normalized intensity) was -1.29.

As for GGTGGATACTTTGACTGAGACTGCCTCAAA, the binding signal (log2 normalized intensity) was -1.36.

For CAGCTTCCCCACTTATTACCGGTGTGACTT, the binding signal (log2 normalized intensity) worked out at 1.44.

For the sequence TCAGGCCGTGGTGTATGATGACGCCACGCC, the binding signal (log2 normalized intensity) is -1.31.

For the sequence ACGCTGCTAATCCTACTTTATCTAAGTAAA, the binding signal (log2 normalized intensity) was -1.31.

For ACTATTTACTTAATCCCTTGGAATGTCCTT, the binding signal (log2 normalized intensity) is 1.68.

With AAAAGAGAGAGAATGTCCTCCCTGAGTCAG, the binding signal (log2 normalized intensity) was -1.31.

Take TGTATGTGGCAGGCACTTAGCAAATATTTA: the binding signal (log2 normalized intensity) was -1.29.

Take CCCCTCTCTACTGGTAAGCAAATATTTGAA: the binding signal (log2 normalized intensity) was determined as 2.3.

For the sequence GGTGTTCCTCAGCCTTGAATTGGCATGAGA, the binding signal (log2 normalized intensity) was -0.394.

GTTCAAATTCCAGCTTCCCCACTTATTACC: the binding signal (log2 normalized intensity) came out at 2.24.

GAGGGGCAGGCTTAGCTGGGCTAGCACCTG: the binding signal (log2 normalized intensity) was -1.32.

As to AGGAGAAAGACCCTAAACCTGTTGGGTCAG, the binding signal (log2 normalized intensity) is -0.00485.

For the sequence TTTGATCAAAGGTCAGCTCTCCTTTGTCTT, the binding signal (log2 normalized intensity) was 4.53.

On to TATTCAGAGTTAGCTAAGCTTCACTGACAT, for which the binding signal (log2 normalized intensity) is -1.33.

For GAGAAGTGATAAATTGGCCAAAGGTGAAGG, the binding signal (log2 normalized intensity) turned out to be 1.25.

On to ATAAGCCTGAATTCTGGAAGGACTGTCTTT, for which the binding signal (log2 normalized intensity) is 0.343.

Consider AACTGCTATTGGTTGTCAGACTGGTGTAGT, for which the binding signal (log2 normalized intensity) is 1.45.

On to CGATAACCCTCTGGGGCCGGGAGCAGGGAG, for which the binding signal (log2 normalized intensity) was -1.33.

On to AACAATGTTATCTTTTCAAGGATGTTTATA, for which the binding signal (log2 normalized intensity) stood at 1.28.

As for AAGCCACGGGCTATTTGGACTAGGCAAAAG, the binding signal (log2 normalized intensity) worked out at 0.967.

With GCACAAGAGGGCAGTATTTGCTTACAGTCT, the binding signal (log2 normalized intensity) is -1.32.

In the case of TCACCCAGAAAAGGCTGTAAACTCACTCTG, the binding signal (log2 normalized intensity) is -1.31.

Consider TTATTTAAATTTCTTGAGGCATTTATTACA, for which the binding signal (log2 normalized intensity) stood at 0.229.

As for AGTCAAAAACCAGTTATTTCAGTTATTTAC, the binding signal (log2 normalized intensity) was -0.641.

In the case of ATGACTCATAAAGAACAGTTATTCTTAGCT, the binding signal (log2 normalized intensity) was -1.33.

As for AATTACCTGGACTCTAGAGCCAGACTAGTA, the binding signal (log2 normalized intensity) came out at 2.01.

Consider ATACTCAGAGCCGCACCCAGCTTTCATCTC, for which the binding signal (log2 normalized intensity) was -1.33.

As for GGCAGTCGTGATAGTGACCACCTGGTGGAC, the binding signal (log2 normalized intensity) came out at 1.42.

In the case of GGGAGAGTGAGTGAGTGTGTGTGTGTAAAA, the binding signal (log2 normalized intensity) came out at 2.24.

As for TGTTTTCAATGACTACCTGTTACCCACCTG, the binding signal (log2 normalized intensity) worked out at 1.25.

For the sequence TGTGCTGCCCCCGATAGCACTATTAGTCTT, the binding signal (log2 normalized intensity) is 3.06.

As for ACTGCGTCCAGCCACAATTAATGTACCCCC, the binding signal (log2 normalized intensity) worked out at 4.54.

Take TAACCAGGGGTGGGGACCTTTGGGCTCTGA: the binding signal (log2 normalized intensity) is 3.03.

On to GTGGTATTTGCTCTGTCATCAACGTATCTG, for which the binding signal (log2 normalized intensity) was 1.14.

As to CTTTGATCTTCTTACCCCTTTGCTGATTAC, the binding signal (log2 normalized intensity) was 2.81.

Take GCTGCAGCTGGGCTATACAATTCCAGCAAG: the binding signal (log2 normalized intensity) was -1.39.

With ATACGTTTAACAGTTCCTCCTGGAATCTGG, the binding signal (log2 normalized intensity) is 0.971.

On to TCCGTTAACAGCGGCATTCCTGTCAAAATC, for which the binding signal (log2 normalized intensity) was -1.35.

As for CAGCCTAACAGGATTTTTGCTGAAGACAGG, the binding signal (log2 normalized intensity) was -1.18.

CCATCGAATTCTTGTCCAACTCCCCTCCCA: the binding signal (log2 normalized intensity) was 4.02.

Take AACAAATTGAGAAAGATTAAGAGGCTACAA: the binding signal (log2 normalized intensity) was -1.38.

Turning to TGGGGCCAAAAAATTCCAGGCACAGTTACT, the binding signal (log2 normalized intensity) is -1.49.

Turning to TGAATTTTATCACTCCATCAAGGGGATTAG, the binding signal (log2 normalized intensity) was -1.37.

Regarding TGGTACTATGACCTTTCACCTTTTAGCTTG, the binding signal (log2 normalized intensity) is 6.25.

As to CCTGCCTCTCCTCTGAGCTTCATCCTGACC, the binding signal (log2 normalized intensity) was 1.7.

Turning to TGTGTTCTTGTTTGCTAAGTGAGAACACCG, the binding signal (log2 normalized intensity) is -0.817.

CTTAAGAACGCTTGTGATTACACTGGGCTC: the binding signal (log2 normalized intensity) is -0.302.

Turning to GCTGTTAAATGGAGTGGAATTTGGAGAGAA, the binding signal (log2 normalized intensity) is 0.124.

Regarding GGTTCTCAGCTGACATTGGTGGAATCTGAA, the binding signal (log2 normalized intensity) is 1.27.

Take AAGAGATTTCCTGCAGGTGGTGACCCCAGA: the binding signal (log2 normalized intensity) amounted to 5.07.

On to GTGTAATGGTTAGCACTCTGGACTCTGAAT, for which the binding signal (log2 normalized intensity) came out at 3.85.

In the case of CTGGGACTTGCCTTTGTCCATTCACTTCCC, the binding signal (log2 normalized intensity) worked out at 0.321.

For CAGTAGTATTACCTGCATCTGCCCAGCAGA, the binding signal (log2 normalized intensity) is -1.3.

For GCAAACCTACCTGAACTTTGCCCCAGAGGA, the binding signal (log2 normalized intensity) is 6.74.
